Results: article PMC6273692, “Binding Mode and Selectivity of Steroids towards Glucose-6-phosphate Dehydrogenase from the Pathogen Trypanosoma cruzi” (Molecules, 2016)

Experiments:
TcG6PDH K84A [1] = molecular target: T1, TcG6PDH K84A (Trypanosoma cruzi, UniProt Q1WBU6, K84A); assay: biochemical
TcG6PDH R408A [2] = molecular target: T2, TcG6PDH R408A (Trypanosoma cruzi, UniProt Q1WBU6, R408A); assay: biochemical
TcG6PDH L80G [3] = molecular target: T3, TcG6PDH L80G (Trypanosoma cruzi, UniProt Q1WBU6, L80G); assay: biochemical
TcG6PDH K83A [4] = molecular target: T4, TcG6PDH K83A (Trypanosoma cruzi, UniProt Q1WBU6, K83A); assay: biochemical
TcG6PDH L80G [5] = molecular target: T3, TcG6PDH L80G
TcG6PDH K84A [6] = molecular target: T1, TcG6PDH K84A
TcG6PDH R408A [7] = molecular target: T2, TcG6PDH R408A
TcG6PDH K83A [8] = molecular target: T4, TcG6PDH K83A
[9] = test system: O=C[C@H](O)[C@@H](O)[C@H](O)[C@H](O)COP(=O)(O)O; assay: purified protein, by the assay type; conditions: apparent, fixed 700 µM NADP+, pH 7.5, 25.0 °C
[10] = read-out: KM NADP^+, apparent, fixed 6 mM G6P

With `C[C@]12CC[C@H](O)C[C@@H]1CC[C@@H]1[C@@H]2CC[C@]2(C)C(=O)CC[C@@H]12` [EA, epiandrosterone] the Ki (TcG6PDH K84A [1]) was 8 µM, the Ki (TcG6PDH R408A [2]) was 3 µM and the Ki (TcG6PDH L80G [3]) was 31 µM. For the same compound, the Ki (TcG6PDH K83A [4]) was 11 µM.

Compound `NC(=O)c1ccc[n+]([C@@H]2O[C@H](COP(=O)([O-])OP(=O)(O)OC[C@H]3O[C@@H](n4cnc5c(N)ncnc54)[C@H](OP(=O)(O)O)[C@@H]3O)[C@@H](O)[C@H]2O)c1` [NADP^+] has a Km (TcG6PDH L80G [5]; [10]) of 75 ± 9 µM, a kcat (TcG6PDH L80G [5]; varying NADP+) of 2.7 ± 0.1 s⁻¹ and a Km (TcG6PDH K84A [6]; [10]) of 17 ± 4 µM. For the same compound, the kcat (TcG6PDH K84A [6]; varying NADP+) was 58 ± 2 s⁻¹, the Km (TcG6PDH R408A [7]; [10]) was 17 ± 3 µM and the kcat (TcG6PDH R408A [7]; varying NADP+) was 19 ± 1 s⁻¹. It also gave a Km (TcG6PDH K83A [8]; [10]) of 21 ± 3 µM and a kcat (TcG6PDH K83A [8]; varying NADP+) of 3.0 ± 0.1 s⁻¹.

With TcG6PDH K83A (Trypanosoma cruzi; K83A) the Km ([9]; other: K83A) was 537 ± 99 µM, the kcat ([9]; other: K83A) was 2.8 ± 0.2 s⁻¹ and the kcat/Km ([9]; other: K83A) was 5000 M⁻¹ s⁻¹.

In the case of TcG6PDH K84A (Trypanosoma cruzi; K84A), the Km ([9]; other: K84A) is reported as 618 ± 78 µM, the kcat ([9]; other: K84A) is reported as 24.6 ± 0.9 s⁻¹ and the kcat/Km ([9]; other: K84A) is reported as 40000 M⁻¹ s⁻¹.

TcG6PDH L80G (Trypanosoma cruzi; L80G) gave a Km ([9]; other: L80G) of 74 ± 17 µM, a kcat ([9]; other: L80G) of 2.0 ± 0.1 s⁻¹ and a kcat/Km ([9]; other: L80G) of 27000 M⁻¹ s⁻¹.

For “TcG6PDH R408A (Trypanosoma cruzi; R408A)”, the Km ([9]; other: R408A) was 168 ± 7 µM, the kcat ([9]; other: R408A) was 15.0 ± 0.3 s⁻¹ and the kcat/Km ([9]; other: R408A) was 89000 M⁻¹ s⁻¹.
